Sequences and labels used below:
B1: CPEB3 Ribozyme (parent)
chain: UAACAGGGGGCCACAGCAGAAGCGUUCACGUCGCAGCCCCUGUCAGAUUCUGGUGAAUCUGCGAAUUCUGCUGUAUAUCUC

The source gives no read counts; variants with many changes may rest on few reads.

Self-cleavage data for 167 variants are collected here from the RNAGym collection of RNA variant scans (doi:10.1093/nar/gkz1192).

In the data set the parent is B1. The data set is described as follows: self-cleavage, relative activity (ratio to wild type); higher = more cleavage; in vitro, sequencing. Summed up:
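Libraries of CPEB3 self-cleaving ribozyme mutants came from rounds of error-prone PCR and carried barcodes, which DNA sequencing matched to variants. In vitro transcription used T7 RNA polymerase at 37°C for 5 hours, with a further 15 min in DNase I before EDTA stopped the reaction; the ribozymes cleaved during both steps. The RNA was reverse transcribed with template switching and sequenced on Illumina. Relative activity is the cleaved/total read fraction of a variant divided by that of the unmutated ribozyme, averaged over three batches with at least 5 reads.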
Regarding C29A U48C U66C U80C, the self-cleavage came out at 0.18.

Turning to A28U U41A U69C, the self-cleavage came to 0.15.

Take G30C U31C A45G: the self-cleavage was 0.18.

Turning to A28G A45U U60C, the self-cleavage was found to be 0.31. As for A28G U69G U72G A75G U78C, the self-cleavage amounted to 0.24. As to A28G C29U U80C, the self-cleavage came out at 0.53. With A28G A35U U51A G55A A57G U74C A75G, the self-cleavage is 0.07. In the case of A28G A45G U72C, the self-cleavage came to 0.54.

For A28U A57G U60C U72G, the self-cleavage is 0.16.

Consider A28G A56U C68U, for which the self-cleavage came out at 0.15.

As for U31A A35G U69C A75U, the self-cleavage stood at 1. The result for G30A U49A A57G A65G reads 0.08; that for A28G U43G U76C, 0.08; that for A28G G42A U58A A75U, 0.34. In the case of U31A A45G G53A, the self-cleavage came out at 0.36.

Regarding C29U G53A U54A U58C, the self-cleavage was 0.19. Consider G30A A45U U49C A56C A65G U72C, for which the self-cleavage was found to be 0.05. As to C29U U67A U69C, the self-cleavage turned out to be 0.1. Turning to A28U U58C U67C U80C, the self-cleavage came to 0.1. U31A A35C U72A A77C: the self-cleavage turned out to be 0.16. Turning to A28U U51G A64G, the self-cleavage worked out at 0.83. Consider C27U A28G A56U A64G U74C, for which the self-cleavage was found to be 0.12. For A28U U54A A64G, the self-cleavage came out at 0.86. C29U G33A C40U U43C A47G U48A A75G: the self-cleavage worked out at 0.03. In the case of C29U A47G U66C, the self-cleavage is 0.14.

Regarding A28G A64U U80C, the self-cleavage came to 0.27. For G30U U31C U54G U69A, the self-cleavage came out at 0.19.

Regarding C29A U69C U80A, the self-cleavage amounted to 0.37. For the variant C27U A64G U74C A77U, the self-cleavage is 0.31. As to A28U G53A A56G U76A, the self-cleavage was 0.66. In the case of A28G U49A U76G A77G, the self-cleavage turned out to be 0.14. On to C29U A35U U43C G52U, for which the self-cleavage turned out to be 0.18. The result for A28G G33A A56G reads 0.43. The result for A28G U31A U67A U69A reads 0.06; that for A28G C34U U67C U72C, 0.08. For the variant C27U U43C U48C U72A, the self-cleavage turned out to be 0.13. As for A28C A35U U48C, the self-cleavage was found to be 0.43. Consider A28G A35G C37U U43C, for which the self-cleavage came out at 0.44. On to C27G U60C A64G U69C, for which the self-cleavage amounted to 0.11. As for A28G U31A A35G A45G G63U U67A U69A, the self-cleavage is 0.15. A28G C40U G53C U78G: the self-cleavage was 0.32. Consider A28G G30A C32U G52U A56U, for which the self-cleavage amounted to 0.16. Turning to U31A A45U U49C A65G, the self-cleavage is 0.15.

Consider A28U A35G G55U U69A, for which the self-cleavage worked out at 0.46. For the variant U31A A45U U80C, the self-cleavage came to 0.62. Take C29U U72C U80A: the self-cleavage was found to be 0.6. The result for G30A A45U U69A reads 0; that for C29G A65G U76A, 0.32; that for A28G U60A U78C, 0.13. The result for A28G U54C C71G reads 0.08; that for A28G G36C U67C, 0.06. A28C U51C A75U: the self-cleavage was found to be 0.54. Turning to C29A U41A U51A U72C, the self-cleavage came to 0.13.

Turning to G30A A45U U54C, the self-cleavage is 0.11. With A28U A35G A64G U78C, the self-cleavage worked out at 1.21. For the variant A28G U54A G63C A64U U72A, the self-cleavage came to 0.1.

With A28U A35G U80C, the self-cleavage stood at 1.33. With A28G A64G U66C, the self-cleavage amounted to 0.09. The result for C29A U31C A75G reads 0.07; that for A28G U51G G52C, 0.62. Regarding C29U U48A A57G, the self-cleavage is 0.07. The result for A28U C29G A47G U51C U58C U76C reads 0.09; that for C29U U31A U66C U80A, 0.14; that for G30U A57C U72A, 0.1. As to G30U C32A A75G, the self-cleavage is 0.18. The result for A28U C29U A56G U60A U69C reads 0.1; that for A28C G36U U43A U49A U69A U72C, 0.14; that for G30U U41A U54A U58C U66C, 0.14. Turning to A28G U41G A77U, the self-cleavage is 0.21. C29U C32A C38A: the self-cleavage was 0.2. On to A28G U43G U78C, for which the self-cleavage was 0.15. On to A28G C32U A57U U78C, for which the self-cleavage was 0.1. Take C29G C39G U41A U66C G70A: the self-cleavage is 0.18. Consider A28C C34A A64U, for which the self-cleavage amounted to 0.16. With C27U A28U A56G U60C, the self-cleavage was 0.14. Take C29U C50A U60C: the self-cleavage turned out to be 0.09. Consider A28C A64G U66A, for which the self-cleavage came to 0.34. For the variant A28G A56C A57G, the self-cleavage was found to be 0.29.

For A28G U43A U51C A64G U69C, the self-cleavage is 0.21.

Take A28G U51A U66C: the self-cleavage turned out to be 0.58. As for C29U U51C A57G A77U U78C U80C, the self-cleavage turned out to be 0.17. Take A28G U48C A56U A65U U72C: the self-cleavage was determined as 0.12. The result for C29U U31C U43C C50A A75G reads 0.04; that for A28C G30U U43C A47G U49A A57G, 0.12; that for A28U C32U U41C, 0.13. Take A28G G36C U43C A65G U78C: the self-cleavage came to 0.07. The result for C27U U58C U67A reads 0.07; that for C29U U41C C44G, 0.26; that for G30A U31A U78C, 0.09.

As for U31A A45G U72A U76C, the self-cleavage was found to be 0.22. Consider A28C U41G A56U, for which the self-cleavage worked out at 0.15. The result for A28G U54C U67C U76A A77U reads 0.05; that for C29U G33A U48C A57G U80C, 0.1; that for A28G U74C U80A, 1.21.

Consider A28G U31C U69C, for which the self-cleavage stood at 0.14. Turning to A28G U43C G46U U78A, the self-cleavage was 0.16. Consider A28G A47G U54A A57U U60A G63A U69A, for which the self-cleavage was 0.08. On to C29U A45U C81A, for which the self-cleavage amounted to 0.09. C29A U54C U72A U74G: the self-cleavage came to 0.55. The result for G30U U51C A75G U76A reads 0.1; that for A28G U31C U58C, 0.16.

As to A28G C29U G33C U76C, the self-cleavage stood at 0.2.

On to A28U C40U U41C U74C, for which the self-cleavage was determined as 1.01.

Take A28U U31C U74A: the self-cleavage stood at 0.65.

Regarding A28G A35G A56U U67C C71U, the self-cleavage came to 0.35. Regarding A28U A45U U58C A65G, the self-cleavage was found to be 0.09. The result for A28G C29U A35U U51C A75U reads 0.23; that for A28G A56G U76A, 0.37. For A28G U41C U80A, the self-cleavage was 0.87. The result for G30C A45G U78C reads 0.1; that for A28U U67A C79A, 0.39. Turning to C27U G30A A47G, the self-cleavage was 0.27. For the variant A28G C29G A56G, the self-cleavage came to 0.62. The result for A28G A35G U76A reads 1.21; that for A28G A65U U80A, 0.18; that for C29A A35C A45G U58A U72C, 0.2.

For A28G C34A A35G U41A U49A U72A, the self-cleavage turned out to be 0.07. On to U31A A35U U51A A56G U60C, for which the self-cleavage was 0.06. The result for A28C U43A A45G A47U U74C A77U reads 0.07; that for G30U U41C A75G U78C, 0.11; that for A28U A57G U60C, 0.16. For A28U U41C U69A, the self-cleavage was 0.23. As to G30A C34A C68A, the self-cleavage was 0.12. Take A28G U51C A56G: the self-cleavage was 0.48. With A28U A35U A56G U67A U69C A77C, the self-cleavage is 0.07.

For A28C U48A U80C, the self-cleavage came to 0.15. For the variant C27U U43C G70A, the self-cleavage worked out at 0.45. Turning to A28C C29A U51A U58A, the self-cleavage stood at 0.09.

Consider A28G U51A U72A, for which the self-cleavage stood at 0.5. On to A28G C29G A64G A75G, for which the self-cleavage worked out at 0.13. Take G30C U49C U51G U72C: the self-cleavage turned out to be 0.12. As for U31A A35G G73C, the self-cleavage is 1.28. For the variant A28G C32A U69A, the self-cleavage is 0.39.

On to A28G A35G U41A, for which the self-cleavage is 0.15. As to G30A U49C U80C, the self-cleavage came out at 0.16. As to A28G U31A A56G A64G, the self-cleavage turned out to be 0.14. Turning to C29U U43A U51A A56U, the self-cleavage amounted to 0.12. Consider G30A U51C A64G, for which the self-cleavage was 0.53. Consider C29A A47G U49C, for which the self-cleavage was 0.26. The result for G30A A56G U67C C79G reads 0.15; that for A28U U41G U51A U72C, 0.12; that for A28G U43A U80C, 1.02.

Take A28U A35U A45G C62U U69C U74C: the self-cleavage stood at 0.09. The result for A28G A35G U54G A65G reads 0.5; that for A28G U69A U78C, 0.23. For A28C A56U U66A A77G, the self-cleavage was 0.33. In the case of G30A C37U U80A, the self-cleavage came out at 0.11.

As to A28U G30U C38A U43G, the self-cleavage was found to be 0.17. The result for A28C U41A U58C reads 0.12.

Turning to A28G A35G A56U, the self-cleavage was 0.68. As to A28G U31A A75G, the self-cleavage turned out to be 0.35.

On to A28U U41A U43G U58C, for which the self-cleavage was determined as 0.18. G30A U58C C68U: the self-cleavage turned out to be 0.05. The result for A28C C50G U54C U67A reads 0.07. On to C27U A35G U66C, for which the self-cleavage was found to be 0.23.

As for A28G G52U A57G, the self-cleavage is 0.47. For the variant A28G A35U U51C U66C A75G, the self-cleavage stood at 0.12.

In the case of A28U U41A A45U G61A U80C, the self-cleavage came to 0.18. On to A28U U66C U67C U72C U78G, for which the self-cleavage came out at 0.1. As to A28G U31A U67C, the self-cleavage turned out to be 0.15. Consider C27U U48C C62U A75U, for which the self-cleavage is 0.08. Turning to G30A U43A U74C U76C, the self-cleavage is 0.27. For the variant C29U U60G U72C, the self-cleavage came out at 0.35. The result for G30U U41C U51C U54A reads 0.09; that for C29G U49C U69A, 0.18; that for A28G U31C G53C A65G, 0.14. With G30U U31A A35U U43C U80A, the self-cleavage was 0.17.
